Experimental data published in ChEMBL document CHEMBL4888484, “Replenishing the malaria drug discovery pipeline: Screening and hit evaluation of the MMV Hit Generation Library 1 (HGL1) against asexual blood stage Plasmodium falciparum ,using a nano luciferase reporter read-out” (2022).
About 540 (0.36%) of roughly 150,000 compounds showed an effect of 50% or more. The list shows a part of the results.

These compounds were tested on Plasmodium falciparum (assay: Primary screen in NF54 nanoGlo assay, in single point, at 2uM, 72h; a lower Z score goes with more inhibition). Conditions: timepoint 72 hour.
Type: functional, Erythrocyte
For NC(=NC[C@@H](c1ccc(Cl)cc1)n1cccn1)N1CCOCC1, the “% Inhibition” value was -5% and the Z score was 0.52.
With Cn1nc(C2CCCCC2)c(C(N)=O)c1N the “% Inhibition” value was 21% and the Z score was -2.65.
In the case of O=C(Nc1ccc(Oc2ccncc2)c(Cl)c1)c1cc[nH]c(=O)c1, the “% Inhibition” value is reported as -11% and the Z score is reported as 1.03.
COc1cc2c(cc1OC)[C@H](CNC(=O)c1ccc(C)cc1)N(Cc1ccccc1F)CC2 was tested, and the “% Inhibition” value was -5% and the Z score was 0.58.
For COc1cc(OC)c(NC(=O)c2cnc(N(C)C)nc2)cc1Cl, the “% Inhibition” value was 7% and the Z score was -1.28.
In the case of CC(=O)N[C@H]1[C@H](c2ccccc2)N(Cc2cccnc2)CC[C@@]1(C)O, the “% Inhibition” value is reported as -11% and the Z score is reported as 1.41.
O=C1CN(c2ccc(CNC(=O)c3cnccn3)cc2)CCN1 was tested, and the “% Inhibition” value was 2% and the Z score was -0.25.
Cc1cc(C)n(CCN(C)CC(=O)NC[C@H]2CCCO2)n1 was tested, and the “% Inhibition” value was -9% and the Z score was 1.4.
With Cc1cccn2cc(COc3ccccc3C(=O)NCc3c[nH]nn3)nc12 the “% Inhibition” value was -12% and the Z score was 1.81.
In the case of CCc1cc(CC(=O)NC[C@H]2CCC3(CCCCC3)O2)n(C)n1, the “% Inhibition” value is reported as -10% and the Z score is reported as 1.34.
CCn1ccnc1CNc1nc(C)cc(C)n1 was tested, and the “% Inhibition” value was -3% and the Z score was 0.59.
With O=C(Cc1ccc(Cl)c(Cl)c1)N1CCC[C@H]1c1nnc2ccccn12 the “% Inhibition” value was -8% and the Z score was 1.37.
In the case of CC(=O)N(CCN1CCCCC1)[C@H]1CCCN(C(=O)CC(C)C)C1, the “% Inhibition” value is reported as 8% and the Z score is reported as -1.01.
CC(C)(C)OC(=O)N1CCC([C@H]2OCC[C@@H]2NC(=O)CC#N)CC1 was tested, and the “% Inhibition” value was 4% and the Z score was -0.65.
COC[C@@]12CN(C(C)=O)CC[C@@H]1CN(S(=O)(=O)c1cc(OC)ccc1OC)C2 was tested, and the “% Inhibition” value was -10% and the Z score was 1.45.
In the case of N#Cc1ncn(CC(=O)N2CCCc3ccccc32)c1C#N, the “% Inhibition” value is reported as -5% and the Z score is reported as 0.65.
With CCc1ncc(CNC(=O)c2ccc3c(c2)[C@@H](C)CO3)o1 the “% Inhibition” value was 2% and the Z score was -0.37.
For CC1CC(NS(C)(=O)=O)C(=O)N1c1ccccc1 (centres undefined), the “% Inhibition” value was 9% and the Z score was -1.78.
Cc1ccc(-c2ncc(C(=O)N[C@H]3CCc4[nH]ncc4C3)c(O)n2)cc1 was tested, and the “% Inhibition” value was -4% and the Z score was 0.56.
With Cc1ccc(C(=O)N2CCc3n[nH]cc3C2)n1C(F)F the “% Inhibition” value was 4% and the Z score was -0.73.
For FC(F)(F)[C@@H]1CN(c2noc(-c3ccccc3)n2)CCO1, the “% Inhibition” value was -6% and the Z score was 0.66.
Cc1nc(C(=O)Nc2nc3c(s2)C(=O)NCCC3)cs1 was tested, and the “% Inhibition” value was -15% and the Z score was 2.93.
COc1ccc([C@H](C)NCC(=O)N2CCCCCC2)c(OC)c1 was tested, and the “% Inhibition” value was -4% and the Z score was 0.72.
c1ccc(-c2noc(-c3cncnc3NC3CCCCC3)n2)cc1 was tested, and the “% Inhibition” value was -4% and the Z score was 0.64.
In the case of CC(=O)Nc1ccc(C)cc1NCc1nccn1CC(F)(F)F, the “% Inhibition” value is reported as -5% and the Z score is reported as 0.68.
With CC(C)(C)c1ccc(-c2ccc(C(=O)NCC3(O)CCOCC3)o2)cc1 the “% Inhibition” value was 35% and the Z score was -0.59.
CS(=O)(=O)N(CC(F)(F)F)C1CCN(Cc2ccccc2C2CC2)CC1 was tested, and the “% Inhibition” value was 6% and the Z score was -0.86.
Cc1ccc(C)c(C2CCN(C(=O)CS(=O)(=O)C(C)C)CC2)c1 was tested, and the “% Inhibition” value was -1% and the Z score was 0.12.
CCn1nccc1-c1ccc(CN2CCN(C)CC2)cn1 was tested, and the “% Inhibition” value was 1% and the Z score was -0.14.
COc1cc(NC(=O)COc2ccccc2C)ncn1 was tested, and the “% Inhibition” value was -8% and the Z score was 1.55.
Cc1ccc(CNC(=O)CCn2cncn2)s1 was tested, and the “% Inhibition” value was -7% and the Z score was 0.59.
For CC(=O)c1cccc(CN2CCC(CCC(=O)Nc3ccccc3Cl)CC2)c1, the “% Inhibition” value was -8% and the Z score was 1.34.
In the case of CN1c2ccc(NC(=O)c3ccncc3F)cc2N(C)S1(=O)=O, the “% Inhibition” value is reported as -2% and the Z score is reported as 0.47.
O=C(Nc1nc2ccccc2[nH]1)c1cccs1 was tested, and the “% Inhibition” value was -1% and the Z score was 0.15.
For Cc1ccc(-c2nnc(NC(=O)c3c(C)nn(C)c3C)[nH]2)o1, the “% Inhibition” value was -13% and the Z score was 1.51.
Cc1ccnc(CC(=O)NC(C)(C)CN2CCOCC2)c1 was tested, and the “% Inhibition” value was -8% and the Z score was 1.25.
For COC[C@H](NC(=O)N(C)Cc1cc(F)c(F)c(F)c1)C1CC1, the “% Inhibition” value was -17% and the Z score was 1.48.
In the case of O=S(=O)(c1ccc(-c2noc(-c3ccccn3)n2)cc1)N1CCOCC1, the “% Inhibition” value is reported as -3% and the Z score is reported as 0.56.
CNc1ncc(-c2cc(C)co2)nc1C was tested, and the “% Inhibition” value was -9% and the Z score was 0.93.
CCCc1cc(N2CCC(Cc3ccccc3)CC2)n2nc(C)c(-c3ccccc3)c2n1 was tested, and the “% Inhibition” value was -1% and the Z score was 0.21.
With CN(C(=O)N1CC2(CCOC2)C1)C1CCCCC1 the “% Inhibition” value was -6% and the Z score was 1.09.
For O=C(NCc1ccccn1)C1=COCCO1, the “% Inhibition” value was 0% and the Z score was -0.02.
For O=C(CC[C@H]1CCCO1)Nc1nc2ccccc2s1, the “% Inhibition” value was -6% and the Z score was 1.25.
For Cc1c([C@H](C)NC(=O)c2ccc[nH]2)cnn1-c1cccc2ccccc12, the “% Inhibition” value was -9% and the Z score was 1.04.
CC(=O)N1CCC(c2nc(CCc3ccccc3)nn2-c2ccc(C)cc2)CC1 was tested, and the “% Inhibition” value was -9% and the Z score was 1.84.
For c1cncc(-c2nnc(CN3CCCC[C@H]3c3nccs3)o2)c1, the “% Inhibition” value was -12% and the Z score was 1.61.
For CN(C)c1ccccc1N(C)CC[C@H]1CCOC1=O, the “% Inhibition” value was 0% and the Z score was -0.03.
With O=S(=O)(c1cccc(Br)c1)N1CCN(CCc2ccccn2)CC1 the “% Inhibition” value was -10% and the Z score was 1.31.
For COC(=O)C1CC(O)CN1Cc1cnn(Cc2ccccc2)c1 (centres undefined), the “% Inhibition” value was -10% and the Z score was 1.36.
In the case of Cc1cc(NS(=O)(=O)c2cnccc2C)n(C)n1, the “% Inhibition” value is reported as -10% and the Z score is reported as 0.82.
COc1nsc(OC)c1C(=O)NCCOCC(F)(F)F was tested, and the “% Inhibition” value was 5% and the Z score was -0.78.
With COC1(C)CN(c2nc(C)nc(C)c2F)C1 the “% Inhibition” value was -4% and the Z score was 0.74.
With Cc1c(-c2cc(-c3cnn(C)c3C)n(-c3cccc(Cl)c3)n2)cnn1C the “% Inhibition” value was 33% and the Z score was -3.73.
Cc1csc2nc(CNc3ccccc3-c3ccccc3)cc(=O)n12 was tested, and the “% Inhibition” value was 10% and the Z score was -1.14.
For O=C(c1cc(-c2cc(NC3CCCC3)nc3[nH]ccc23)c[nH]1)N1CCOCC1, the “% Inhibition” value was 2% and the Z score was -0.25.
CN(C)CCCNCc1ccccc1F was tested, and the “% Inhibition” value was 31% and the Z score was -4.15.
CCC[C@H](C)NS(=O)(=O)c1c(C2OCCO2)cnn1C was tested, and the “% Inhibition” value was 10% and the Z score was -1.85.
